Where “and” joins values, the source holds several entries; their conditions need not be identical. Identical values can stand only once. Out of some 48,000 compounds screened, about 1,200 (2.5%) were called active. Inconclusive results (about 2%) are left out.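 Rule for the calls: active = activation of at least 60% and not above a set upper limit (about 1 call in 100 departs from these limits); inconclusive = activation of 40% to 60%, or above that upper limit; inactive = activation under 40%.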 This is one part of the list.
Target: Probable G-protein coupled receptor 32 (Homo sapiens) (UniProt O75388)
Assay: qHTS for Agonists of Human Resolvin D1 Receptor DRV1; note: 0% is about no effect
Details: CHO-K1 GPR32 beta-arrestin PathHunter luminescence, 90 min; at 76.9 µM; stronger effect = higher value; zero percent set by DMSO-only wells
How it was run: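 Agonism was scored by beta-Gal fragment complementation (chemiluminescent read, 1 h detection at ambient temperature) reporting beta-arrestin binding to GPR32 in engineered CHO-K1 cells. Compound treatment lasted 90 min at 37 C, normalized to a DMSO basal control.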

Chain of UniProt O75388 (O75388 whole entry, looked up): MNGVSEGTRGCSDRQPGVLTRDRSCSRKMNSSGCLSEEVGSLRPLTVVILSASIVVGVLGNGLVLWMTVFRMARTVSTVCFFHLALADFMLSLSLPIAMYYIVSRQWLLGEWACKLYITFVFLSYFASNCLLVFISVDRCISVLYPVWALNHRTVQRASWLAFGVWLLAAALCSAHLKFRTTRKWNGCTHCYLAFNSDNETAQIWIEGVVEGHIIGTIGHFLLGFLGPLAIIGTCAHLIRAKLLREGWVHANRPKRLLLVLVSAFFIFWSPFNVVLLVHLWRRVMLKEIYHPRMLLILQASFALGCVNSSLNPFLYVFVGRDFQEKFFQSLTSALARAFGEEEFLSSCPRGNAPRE

activation, inactive:
O=C(CN1C(=O)CCSc2ccc(S(=O)(=O)N3CCCC3)cc21)Nc1ccccc1 -3.63%, O=C(Cn1cc(S(=O)(=O)Cc2ccccc2Cl)c2ccccc21)NCc1ccccc1Cl -2%, Cn1c(NCCCCO)nc2c1c(=O)n(Cc1ccc(Cl)cc1)c(=O)n2C 5.86%, O=C1O/C(=C/Br)CCC1c1cccc2ccccc12 (stereo not given) -11.9%, COc1ccc(NC(=O)Cn2c(=O)n(CCCC(=O)NCc3ccccc3OC)c(=O)c3ccccc32)cc1Cl -0.0076%, COc1cccc(NC(=O)CCS(=O)(=O)c2ccc3c(c2)oc(=O)n3C)c1 -3.59%, Cc1ccc2c(c1)c1c(c(=O)n(-c3cccc(Cl)c3)c(=O)n1CC(=O)N1CCCC1)n2C 5.05%, CC(O)COc1ccccc1 (stereo not given) -1.64%, COc1cc(C2c3c(oc4cc(C)c(C)cc4c3=O)C(=O)N2CCCN2CCOCC2)ccc1O (stereo not given) -4.48%, CCOC(=O)c1cc(S(=O)(=O)Nc2ccc(Br)c(C)c2)[nH]n1 22.4%, Cc1c(C(=O)N2CCC(c3nc4ccccc4s3)CC2)oc2cc(Br)ccc12 -9.61%, COc1ccc(Br)cc1CNC(=O)c1cc(=O)[nH]c2ccc(S(=O)(=O)N3CCCC3)cc12 -12.5%, CCOc1ccc(-n2c(SCc3nc(-c4ccc(OC)cc4)no3)nnc2-c2ccncc2)cc1 -9.21%, CCOc1cccc2cc(-c3nc4sc5c(c4c(=O)[nH]3)CCC(C(C)(C)C)C5)c(=O)oc12 (stereo not given) 2.27%, CCCNC(=O)c1cc2nc(-c3ccc(Br)cc3)cc(C(F)(F)F)n2n1 -5.4%, CC(C)Cc1ccc(C(C)C(=O)OCc2ccccn2)cc1 (stereo not given) -0.967%, COc1ccc(Br)cc1CNC(=O)c1cc2ccccn2n1 40.6%, O=C(COC(=O)c1cc(-c2cccs2)nc2ccccc12)c1ccc(Br)cc1 9.49%, CCOc1ccccc1NC(=O)Cn1c(=O)n(CCC(C)C)c(=O)c2cccnc21 0.0264%, CC1=C(C(=O)Nc2ccccc2)C(c2ccccc2C)n2ncc(C(=O)Nc3ccccc3)c2N1 (stereo not given) -24.3%, Cc1cc(C)cc(OCCn2c(C3CC(=O)N(c4ccccc4Cl)C3)nc3ccccc32)c1 (stereo not given) 9.99%, Cc1nc2ccccc2n1CCc1nc2c3ccccc3nc(SCc3cccc(F)c3)n2n1 17.9%, Cc1ccc2c(=O)c(C(=O)c3ccccc3)cn(CC(=O)Nc3ccc4c(c3)OCCO4)c2n1 9.71%, CC(C)(C)c1ccc(C2Sc3ccccc3NC3=C2C(=O)c2ccccc23)cc1 (stereo not given) -52%, Cn1c(=O)c2sccc2n2c(CCC(=O)NCc3ccc(F)cc3)nnc12 0.546%, COc1ccc(CCNC(=O)CCn2c(=O)c3ccccc3n(CC(=O)Nc3ccccc3F)c2=O)cc1OC 10.4%, Cc1ccccc1OC(=O)c1snnc1C 14.1%, O=C(NCc1ccc(Cl)cc1)c1ccc(CSCc2cccc(Cl)c2)o1 -2.25%, O=C(Cc1ccccc1)N(Cc1cccnc1)c1nc2c(F)cccc2s1 -16.8%, O=C(Nc1ccc(Cl)cc1F)c1oc(=O)c2ccccc2c1-c1ccccc1 -8.69%, CCOc1ccccc1NC(=O)CSc1nc2c(c(=O)[nH]1)CCC2 28.6%, COc1ccc(OCc2nc3ccccc3n2C(C)c2ccccc2)cc1 (stereo not given) -21%, Cc1ccnc(NS(=O)(=O)c2ccc(NC(=O)C(C)(C)Oc3ccc(Cl)cc3)cc2)n1 19.8%, CCOc1cccc2cc(-c3cn4c(n3)sc3cc(C)ccc34)c(=O)oc12 -10.3%, Cc1ccc(OCC(=O)Nc2cccc(OCc3cc(=O)n4ccccc4n3)c2)cc1C -7.84%, Cc1cc(C)c2c(CC(=O)Nc3ccc(S(=O)(=O)N4CCCC(C)C4)cc3)coc2c1 (stereo not given) -18.3%, Nc1nc(Nc2cccc(C(F)(F)F)c2)sc1C(=O)c1ccccc1 1.17%, CCC(C(=O)Nc1ccc(C(=O)OC)cc1)n1nc(-c2ccc(C)cc2)c2c(c1=O)CCCC2 (stereo not given) 2.74%, C=C(C)Cn1c(SCC(=O)c2ccc(OC)cc2)nc2sc3c(c2c1=O)CCCC3 -7.56%, CCOc1cc(C2Nc3ccccc3-c3nnc(SCc4ccccc4)nc3O2)ccc1OC (stereo not given) -0.875%, C#CCn1c(COc2ccccc2C)nc2ccccc21 7.69%, COc1cccc(CNC(=O)c2cc3cccc4c3n2CC(C)S4)c1OC (stereo not given) -16.1%, Cc1ccc(-c2noc(-c3ccc(N4CCC(C)CC4)c([N+](=O)[O-])c3)n2)cc1 9.34%, Cc1ccc(-n2cc(-c3ccccc3)c3c(NC4CCCC4)ncnc32)cc1 -29.9%, COc1cc2c(=O)c(S(=O)(=O)c3ccc(F)cc3)cn(Cc3ccccc3C)c2cc1OC 17.1%, CCN(Cc1ccccc1)C(=O)C1CCN(c2ncnc3c2nc2n3CCCCC2)CC1 -11.7%, COc1cc(OC)c(OC)cc1CNCCSc1nnnn1-c1ccccc1 3.65%, Cn1c(CNC(=O)CSc2n[nH]c(-c3ccccc3Cl)n2)nc2ccccc21 0.833%, Cc1cccc(N(C)C(=O)CN2C(=O)COc3ccc(S(=O)(=O)N4CCCCCC4)cc32)c1 -37%, CCOc1ccccc1NC(=O)CCS(=O)(=O)c1cccc2nsnc12 -5.68%, Cc1c2cnn(CC(=O)N3CCN(c4ccccc4)CC3)c(=O)c2c(C)n1Cc1ccc(F)cc1 -3.34%, Cc1ccc(C)c(Cn2c(C(C)NC(=O)c3ccc(F)cc3)nc3ccccc32)c1 (stereo not given) -14.8%, CCN(c1ccccc1)S(=O)(=O)c1cc(-c2onc(C)c2C)ccc1OC -24.9%, O=C1CC(c2ccccc2)Cc2[nH]c(=O)c(C(=O)Nc3ccc(OC(F)(F)F)cc3)cc21 (stereo not given) 8.74%, Cc1cccc(N2CCN(C(=O)C3CCCN(S(=O)(=O)c4cccc5nsnc45)C3)CC2)c1C (stereo not given) -0.0496%, COc1cccc(N2C(=O)C(CC(=O)Nc3ccc(Cl)cc3)N(Cc3ccc4c(c3)OCO4)C2=O)c1 (stereo not given) -1.23%, COc1ccc(N2CCN(C(=O)c3c(C)oc4ncnc(N5CCCCC5)c34)CC2)cc1 -23.7%, CCOCCCNC(=O)C(c1ccccc1)N(Cc1cccs1)C(=O)c1ccc(NC(C)=O)cc1 (stereo not given) 4.1%, CCn1c(=O)c2sccc2n2c(CCCC(=O)N3CCN(c4ccc(OC)cc4)CC3)nnc12 3.43%, CC(=O)Nc1ccc(/C=N/NC(N)=S)cc1 -22.4%, COCCn1c(CCC(=O)Nc2cc(C)ccc2C)nc2cccnc21 -6.1%, Cc1cccc(-c2noc(CCCC(=O)NCc3ccco3)n2)c1 2.53%, O=C(O)Cc1ccc(OCCNC[C@H](O)c2ccccc2)cc1 -54.4%, Cc1ccc(Nc2ncnc3c2cnn3-c2ccccc2)c(C)c1 20.5%, CC(C(=O)O)c1cccc(C(=O)c2ccccc2)c1 (stereo not given) 13% and 2.74%, CCOc1ccc(S(=O)(=O)N2CCN(c3cc(Cl)ccc3Cl)CC2)c2ccccc12 -0.36%, O=c1[nH]c2ccc(NCc3ccc(-c4cccc(Cl)c4)o3)cc2[nH]1 8.55%, CCOc1ccccc1CNC(=O)C1CCN(S(=O)(=O)c2cccc3nonc23)CC1 1.59%, Cn1c(=O)c2c(SCC(=O)N3CCc4ccccc43)nc(-c3cccc(F)c3)nc2n(C)c1=O -6.22%, Cc1ccc(NC(=O)CN2C(=O)C(c3ccc(F)cc3)=NC23CCCCC3)c(C)c1 -24.2%, O=C(CCCCCn1c(=O)[nH]c2ccccc2c1=O)NCc1cccc(Cl)c1 -17.7%, CCc1ccccc1NC(=O)C(CC)Sc1ncnc2c1sc1ccccc12 (stereo not given) -21.3%, Cc1ccc(C(=O)c2cn(Cc3ccccc3C)c3nc(C)ccc3c2=O)cc1 -12.2%, Cc1ccccc1-c1cc2nccc(-c3cc(Cl)ccc3O)n2n1 -15.8%, Cc1ccc(NC(=O)Cn2c(=O)n(Cc3ccc4c(c3)OCO4)c(=O)c3ccccc32)cc1 -23.8%, COc1ccc(-c2cn3c(n2)sc2cc(C(=O)NCc4cccc(F)c4)ccc23)cc1 -1.18%, Cc1oc2c(cc(NS(=O)(=O)c3ccc(Cl)cc3)c3ccccc32)c1C(=O)OCc1ccccc1 19.1%, CCCc1noc(-c2ccc(NCc3ccc(C)cc3)c([N+](=O)[O-])c2)n1 -0.499%, CCCc1cnc2c(c1SCc1cccc(F)c1)c(=O)n(C)c(=O)n2C -14.4%, Cc1nc(C)c(CCNS(=O)(=O)c2ccc(F)cc2)s1 3.15%, Cc1ccc(NC(=O)CN2C(=O)COc3ccc(S(=O)(=O)NC4CCCC4)cc32)c(Cl)c1 -25.6%, CCc1ccc(Nc2nnc(-n3nc(C)cc3C)c3ccccc23)cc1 -12.5%, COc1ccc(CNC(=O)c2cnc3sc(N4CCCC4)nn3c2=O)c(OC)c1 -13%, COc1cc(C(O)CO)ccc1OS(=O)(=O)O (stereo not given) 13.7%, CCCCNC(=O)CSc1nc2cc3c(cc2c(=O)n1CCCCCC(=O)NCc1ccc(OC)cc1)OCO3 -8.63%
